# PubChem BioAssay AID1347043 (National Center for Advancing Translational Sciences (NCATS), 2019)
# The campaign covered roughly 76,000 compounds. About 1,900 (2.5%) were called active. Inconclusive means that the source gave no clear call. Such entries were picked first, then a sample of the others. Calls follow the shape of the dose curve; as a rule, active = well fitted inhibition curve with a large enough effect; inconclusive = small, poorly fitted or top-dose-only effect; inactive = flat fitted curve, though single readings scatter. Where the call is inconclusive, the potency comes from a doubtful curve fit.
# Biological target: Luciferin 4-monooxygenase (Photinus pyralis) (UniProt P08659)
# Assay: Firefly luciferase inhibition profiling of diverse chemical library using quantitative high-throughput screening; also: nearly all actives have a fitted effect of over 65% in size
# Settings: purified P. pyralis luciferase, luminescence, biochemical; series mostly up to 115 µM
# In short: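 Luminescence read by CCD imaging after purified firefly luciferase (10nM final) was added to substrate buffer holding 10uM D-luciferin and 10uM ATP, pH 7.5, pre-dosed with compound.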
# Potency is read from the fitted curve at half-maximal effect; tags tell the direction and shape of the fitted curve.
# UniProt P08659, sequence (P08659 whole entry, looked up): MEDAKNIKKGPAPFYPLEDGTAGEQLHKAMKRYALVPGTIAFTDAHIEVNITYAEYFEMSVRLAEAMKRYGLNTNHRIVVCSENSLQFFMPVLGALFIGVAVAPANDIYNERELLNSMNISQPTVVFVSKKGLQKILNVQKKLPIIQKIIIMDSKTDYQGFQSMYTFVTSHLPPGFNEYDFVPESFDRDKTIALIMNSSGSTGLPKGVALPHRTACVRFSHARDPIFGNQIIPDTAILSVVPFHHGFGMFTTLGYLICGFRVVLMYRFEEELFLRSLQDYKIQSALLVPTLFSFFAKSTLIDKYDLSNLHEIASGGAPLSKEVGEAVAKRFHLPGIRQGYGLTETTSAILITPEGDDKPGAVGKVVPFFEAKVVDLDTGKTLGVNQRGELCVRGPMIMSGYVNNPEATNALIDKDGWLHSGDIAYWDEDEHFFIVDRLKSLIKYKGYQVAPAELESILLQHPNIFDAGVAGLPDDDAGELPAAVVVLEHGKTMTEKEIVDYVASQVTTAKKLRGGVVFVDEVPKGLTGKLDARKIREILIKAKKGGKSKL
row,SMILES,Potency
1,Cc1ccc(NC(=O)c2ccc(Cn3ccn4nc5c(c4c3=O)CCCC5)cc2)cc1C,"inconclusive: 12.6 µM [inhibitor, full curve]"
2,CC(NC(=O)c1ccc(OC2CCN(S(=O)(=O)N(C)C)CC2)cc1)c1ccc(F)cc1 (stereo not drawn),"inconclusive: 50.1 µM [inhibitor, partial curve]"
3,CN(C)C(=O)c1ccc(-c2ncc3c(n2)OCCN(CC2CC2)C3=O)cc1,"inconclusive: 50.1 µM [inhibitor, partial curve]"
4,COc1ccc(CN2C=C(C(=O)OCc3noc(C4CCCCC4)n3)C(C)=NS2(=O)=O)cc1,"inconclusive: 5.01 µM [inhibitor, full curve, poor fit]"
5,O=C(c1ccc(=O)[nH]c1)N1CCC(C(=O)N2CCc3c(nc4cc(-c5ccccc5)[nH]n4c3=O)C2)CC1,"inconclusive: 50.1 µM [inhibitor, partial curve, poor fit]"
6,CCCS(=O)(=O)N1CCC(Oc2ccc(-c3noc(C(C)C)n3)cc2)C1 (stereo not drawn),"inconclusive: 44.7 µM [inhibitor, partial curve]"
7,O=c1[nH]c(N2CCOCC2)nc2c1CCN(Cc1cccc(Cl)c1F)CC2,inactive
8,Cc1nnc(-c2cc(-c3cccc(CO)c3)ccn2)n1Cc1ccccc1,"inconclusive: 44.7 µM [inhibitor, partial curve]"
9,O=C(NCCC1CCN(C(=O)Nc2ccccc2F)CC1)C1CC1,"inconclusive: 56.2 µM [inhibitor, partial curve, poor fit]"
10,CN1C(=O)c2cccn2CC1CNC(=O)Nc1ccc2c(c1)OCCO2 (stereo not drawn),"inconclusive: 44.7 µM [inhibitor, partial curve]"
11,O=C(NCC1CNCCOC1)c1ccc2nc(-c3ccc(F)cc3)cn2c1 (stereo not drawn),"inconclusive: 50.1 µM [inhibitor, partial curve, poor fit]"
12,O=C(NC[C@H]1OC[C@@H](N(Cc2ccccc2)Cc2ccccc2)[C@@H]1O)Nc1ccccc1,inactive
13,COCCN1CCCC(c2[nH]ccc2C(=O)NCCn2cccn2)C1 (stereo not drawn),inactive
14,CC1(C)[C@H](Cc2cc(-c3ccc(F)cc3)on2)C[C@@H]1NS(C)(=O)=O,"inconclusive: 126 µM [inhibitor, single point]"
15,CCOc1cccc(CNC(=O)c2noc(-c3ccc(C)cc3)n2)c1,"inconclusive: 20 µM [inhibitor, full curve]"
16,c1ccc(CN2CCNc3cnc(-c4ccc(N5CCOCC5)cc4)cc3C2)cc1,active: 20 µM
17,CC(C)Cc1cc(C[C@@H]2C[C@H](NC(=O)NC(C)C)C2(C)C)no1,inactive
18,COc1ccc(C2Cn3cnc(C(=O)N4CCC(C(=O)Nc5ccc(C)c(F)c5)CC4)c3CO2)cc1 (stereo not drawn),"inconclusive: 39.8 µM [inhibitor, partial curve]"
19,Cn1nc(C(=O)N2CCC3(CC2)N=C(c2ccccc2)NO3)c2ccccc21,active: 35.5 µM
20,CCc1ccc(CNC(=O)Cn2nc(C)c3sc(C(C)C)nc3c2=O)cc1,"inconclusive: 39.8 µM [inhibitor, partial curve]"
21,Cc1ccc(C(=O)N2CCC(OC3CCN(Cc4ccccc4)CC3)CC2)cc1,inactive
22,COc1ccc(-c2noc([C@@H]3C[C@@H](O)CN3C3CCCCC3)n2)cc1,active: 70.8 µM
23,Clc1ccc2nc(-c3nc(C4CCOC4)no3)cn2c1 (stereo not drawn),"inconclusive: 39.8 µM [inhibitor, partial curve]"

row,SMILES,Potency
1,Cc1ccc(-n2nc(C)c([C@@H]3C=C[C@@H](NC(=O)COCC(=O)O)C3)c2C)cc1Cl,active: 35.5 µM
2,CN(C)c1ccc(C(=O)N2CCN(c3cc(-c4cccs4)[nH]n3)CC2)cc1,inactive
3,O=C(c1ccccc1Cl)N1CCc2nc(-c3ccc(Cl)cc3)nc(-c3ccccc3)c2C1,"inconclusive: 39.8 µM [inhibitor, partial curve]"
4,CC1=C[C@@H](CNC(=O)N2CCOCC2)[C@H](C(C)C)C[C@H]1Cc1nc2ccccc2n1C,inactive
5,CC1(CNc2ccccc2)COc2ccc(C(=O)NCCc3ccccc3)cc2N1 (stereo not drawn),"inconclusive: 35.5 µM [inhibitor, partial curve]"
6,COc1ccc(OC)c(CNC(=O)C2CCN(C(=O)N3CC4CC(C3)[C@H]3CCCC(=O)N3C4)CC2)c1 (stereo partly drawn),inactive
7,COc1ccc(-c2ccc3nc(-c4ccc(F)cc4F)oc3c2)c(OC)c1OC,"inconclusive: 15.8 µM [inhibitor, full curve]"
8,O=C(NCCC1CCN(C(=O)Nc2cc(F)cc(F)c2)CC1)c1ccc2nc[nH]c2c1,"inconclusive: 44.7 µM [inhibitor, partial curve]"
9,Cc1ccc(C(=O)N2CCC3(CC2)N=C(c2ccc(Cl)cc2)NO3)cc1,"inconclusive: 44.7 µM [inhibitor, partial curve, poor fit]"
10,CCc1nc(CN2CCOc3c(O)cc(-c4nc(C)cnc4C)cc3C2)no1,inactive
11,Cc1nc2n(c1C(=O)Nc1cc(-c3ccc(F)cc3)[nH]n1)CCC(Nc1ccc(F)cc1)C2 (stereo not drawn),"inconclusive: 89.1 µM [inhibitor, single point]"
12,Cc1nn(-c2ccc(C(C)C)cc2)c(C)c1[C@@H]1C=C[C@@H](NC(=S)NCC(C)C)C1,active: 7.08 µM
13,O=C(C1CC1)N1CCCN(c2nc3ncccc3o2)CC1,"inconclusive: 50.1 µM [inhibitor, partial curve]"
14,N[C@H]1CO[C@H]2[C@@H]1OC[C@@H]2n1cc(-c2ccccc2)nn1,"inconclusive: 100 µM [inhibitor, partial curve]"
15,O=C(C1CC1)N1CCC2(CC1)CN(c1ccccc1)C2=O,inactive
16,Cc1ccc(C2Cn3nnc(C(=O)NC4CCCCCC4)c3CO2)cc1 (stereo not drawn),inactive
17,COc1cccc(C(=O)NC2CCCN(c3cc(-c4ccc(F)cc4)[nH]n3)C2)c1 (stereo not drawn),"inconclusive: 14.1 µM [inhibitor, full curve]"
18,O=C(NCc1ccccc1)NC[C@H]1Cn2c(-c3ccc4c(c3)OCO4)cnc2CO1,"inconclusive: 63.1 µM [inhibitor, full curve]"
19,O=C(O)C1CCc2sc(C(=O)N3CCCCCC3)cc2C1 (stereo not drawn),active: 15.8 µM
20,CCNC(=O)N1CCCC(c2noc(COc3ccccc3F)n2)C1 (stereo not drawn),active: 35.5 µM
21,Cc1ccc(F)cc1CNC(=O)CCc1nnc(CCc2c[nH]c3ccccc23)o1,"inconclusive: 44.7 µM [inhibitor, partial curve]"
22,O=C(Nc1ccccc1)O[C@@H]1CO[C@H]2[C@@H]1OC[C@@H]2n1nnnc1-c1ccc2c(c1)OCCO2,active: 44.7 µM
23,O=C(Nc1ccc(Cl)nc1)c1cc2cccnn2n1,"inconclusive: 39.8 µM [inhibitor, partial curve]"

row,SMILES,Potency
1,O=C(NCC1CCN(c2cc(-c3ccc(Cl)cc3)[nH]n2)CC1)c1cc(C2CC2)[nH]n1,"inconclusive: 39.8 µM [inhibitor, partial curve]"
2,COc1ccccc1CC(=O)N1CCCc2ncc(C(=O)NCCc3ccccc3)cc21,"inconclusive: 79.4 µM [inhibitor, partial curve]"
3,c1ccc(CN2CCNc3cc(-c4cccnc4)ncc3C2)cc1,inactive
4,Cc1nc(C2CCCN(C(=O)C(C)(C)N)C2)cc(N2CCCC2)n1 (stereo not drawn),inactive
5,COc1ccccc1-c1cnc(Nc2cccc(N[S+](C)(=O)[O-])c2)c2c1CCO2,"inconclusive: 79.4 µM [inhibitor, partial curve]"
6,COc1ccc(-c2cnc3[nH]cc(CC(=O)N4CCC(OC)CC4)c3c2)cc1,active: 22.4 µM
7,CS(=O)(=O)Nc1ccc(C2(C(=O)O)CCCCC2)cc1,"inconclusive: 56.2 µM [inhibitor, partial curve, poor fit]"
8,CCN(CC)CC[C@H]1CN(C(=O)c2ccc(N(C)C)cc2)CC[C@H]1CC(=O)O,inactive
9,Cc1ccc2oc([C@H]3CCN(C(=O)C4CC4)C3)nc2c1,active: 35.5 µM
10,COc1ccc(C(=O)NCCn2ccn3nc(-c4ccc(F)cc4)cc3c2=O)cc1OC,"inconclusive: 3.55 µM [inhibitor, full curve, poor fit]"
11,Cc1ccc(-c2cc3c(=O)n(CCNC(=O)Cc4cccc(F)c4)ccn3n2)cc1C,active: 3.55 µM
12,CN1C(=O)CCC2(CNC(=O)C3(S(=O)(=O)c4ccc(Cl)cc4)CC3)CCC=C12 (stereo not drawn),"inconclusive: 70.8 µM [inhibitor, partial curve, poor fit]"
13,CN1CCC(N2CC[C@H](c3nc4ccccc4s3)C2)CC1,"inconclusive: 79.4 µM [inhibitor, partial curve, poor fit]"
14,COc1ccc(NC(=O)Cn2c(-c3ccc(Cl)cc3)nc(C)c(CCO)c2=O)cc1,inactive
15,O=C(NC1CCCN(c2cc(-c3ccc(Cl)cc3)[nH]n2)C1)c1cccnc1 (stereo not drawn),"inconclusive: 44.7 µM [inhibitor, partial curve]"
16,CN1C(=O)C2(CCN(S(=O)(=O)c3ccc(F)cc3)C2)c2ccccc21 (stereo not drawn),inactive
17,COc1ccccc1NC(=O)Nc1cccc(-c2ccc(N3CCOCC3)nn2)c1,active: 1.41 µM
18,CN(Cc1ccc(-c2ccccc2)cc1)Cc1nccs1,active: 44.7 µM
19,O=C1CCCN1CC(=O)N1CCC(C2CCN(Cc3cccc(F)c3F)CC2)C1 (stereo not drawn),inactive
20,COc1ccc(-c2nnc([C@H]3CCN(S(=O)(=O)Cc4ccccc4)C3)o2)cc1,active: 50.1 µM
21,Cc1ccc(NC(=O)C2CCN(C(=O)c3ncn4c3COC(c3ccc(F)cc3)C4)CC2)c(C)c1 (stereo not drawn),active: 35.5 µM
22,COc1nc2nc(CCc3ccccc3)n(C)c2cc1-c1cccc(NC(C)=O)c1,"inconclusive: 70.8 µM [inhibitor, partial curve]"
